The source of these data is the supplement of paper PMC12230231.

± gives the standard deviation of the averaged measurements. Restriction of a single-cycle SIVsab GFP reporter by TRIM5α v1-loop variants in CRFK cells. Human variants: read share among cells still uninfected after two challenges over input, higher = gained restriction. Rhesus variants: share among infected cells over input, higher = lost restriction. Reporter dose not given per row. No active / inactive call per row; the paper calls a change when both replicates lie above its controls (mean + 2 SD of stop or wild-type variants, or the top frameshift score). Residues outside the varied loop are taken from Swiss-Prot. The paper reads the human single-substitution scores as noise; they and the rhesus combinations repeat poorly (rank correlation 0.3 to 0.4), indel scores repeat only for the top variants, rhesus substitutions well (0.9).

The test system of this data set is SIVsab (simian immunodeficiency virus of sabaeus monkeys), single-cycle GFP reporter, in CRFK cells. In words: enrichment among uninfected cells over input (fold); higher = stronger restriction. Particulars: library: human / rhesus combinations. The method, then: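 Pools of CRFK cells expressing variants of the TRIM5α v1 loop were challenged with the single-cycle reporter, sorted by GFP and sequenced; mean of two replicates.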
As to “MASGILVNVKEEVTCPICLELLTQPLSLDCGHSFCQACLTANHKKSMLDKGESSCPVCRISYQPENIRPNRHVANIVEKLREVKLSPEGQKVDHCARHGEKLLLFCQEDGKVICWLCERSQEHRGHHTFLTEEVAREYQVKLQAALEMLRQKQQEAEELEADIREEKASWKTQIQYDKTNVLADFEQLRDILDWEESNELQNLEKEEEDILKSLTNSETEMVQQTQSLRELISDLEHRLQGSVMELLQGVDGVIKRTENVTLKKPETFPKNQRRVFRAPDLKGMLEVFRELTDVRRYWVDVTVAPNNISCAVISEDKRQVSSPKPQIIYGAPGTLYTFPSLTNFNYCTGILGSQSITSGKHYWEVDVSKKTAWILGVCAGFQPDAMCNIEKNENYQPKYGYWVIGLEEGVKCSAFQDSSFHTPSVPFIVPLSVIICPDRVGVFLDYEACTVSFFNITNHGFLIYKFSHCSFSQPVFPYLNPRKCGVPMTLCSPSS [human TRIM5α, 330-340 = GAPGTLYTFPSLT]”, the enrichment turned out to be 0.121 ± 0.049.
The same measure for “MASGILVNVKEEVTCPICLELLTQPLSLDCGHSFCQACLTANHKKSMLDKGESSCPVCRISYQPENIRPNRHVANIVEKLREVKLSPEGQKVDHCARHGEKLLLFCQEDGKVICWLCERSQEHRGHHTFLTEEVAREYQVKLQAALEMLRQKQQEAEELEADIREEKASWKTQIQYDKTNVLADFEQLRDILDWEESNELQNLEKEEEDILKSLTNSETEMVQQTQSLRELISDLEHRLQGSVMELLQGVDGVIKRTENVTLKKPETFPKNQRRVFRAPDLKGMLEVFRELTDVRRYWVDVTVAPNNISCAVISEDKRQVSSPKPQIIYGAPGTLYTFPSLVNFNYCTGILGSQSITSGKHYWEVDVSKKTAWILGVCAGFQPDAMCNIEKNENYQPKYGYWVIGLEEGVKCSAFQDSSFHTPSVPFIVPLSVIICPDRVGVFLDYEACTVSFFNITNHGFLIYKFSHCSFSQPVFPYLNPRKCGVPMTLCSPSS [human TRIM5α, 330-340 = GAPGTLYTFPSLV]”: 0.178 ± 0.1; for “MASGILVNVKEEVTCPICLELLTQPLSLDCGHSFCQACLTANHKKSMLDKGESSCPVCRISYQPENIRPNRHVANIVEKLREVKLSPEGQKVDHCARHGEKLLLFCQEDGKVICWLCERSQEHRGHHTFLTEEVAREYQVKLQAALEMLRQKQQEAEELEADIREEKASWKTQIQYDKTNVLADFEQLRDILDWEESNELQNLEKEEEDILKSLTNSETEMVQQTQSLRELISDLEHRLQGSVMELLQGVDGVIKRTENVTLKKPETFPKNQRRVFRAPDLKGMLEVFRELTDVRRYWVDVTVAPNNISCAVISEDKRQVSSPKPQIIYGAPGTLYTFPTFTNFNYCTGILGSQSITSGKHYWEVDVSKKTAWILGVCAGFQPDAMCNIEKNENYQPKYGYWVIGLEEGVKCSAFQDSSFHTPSVPFIVPLSVIICPDRVGVFLDYEACTVSFFNITNHGFLIYKFSHCSFSQPVFPYLNPRKCGVPMTLCSPSS [human TRIM5α, 330-340 = GAPGTLYTFPTFT]”: 0.049 ± 0.069.
The same measure for “MASGILVNVKEEVTCPICLELLTQPLSLDCGHSFCQACLTANHKKSMLDKGESSCPVCRISYQPENIRPNRHVANIVEKLREVKLSPEGQKVDHCARHGEKLLLFCQEDGKVICWLCERSQEHRGHHTFLTEEVAREYQVKLQAALEMLRQKQQEAEELEADIREEKASWKTQIQYDKTNVLADFEQLRDILDWEESNELQNLEKEEEDILKSLTNSETEMVQQTQSLRELISDLEHRLQGSVMELLQGVDGVIKRTENVTLKKPETFPKNQRRVFRAPDLKGMLEVFRELTDVRRYWVDVTVAPNNISCAVISEDKRQVSSPKPQIIYGAPGTLYTFPTFVNFNYCTGILGSQSITSGKHYWEVDVSKKTAWILGVCAGFQPDAMCNIEKNENYQPKYGYWVIGLEEGVKCSAFQDSSFHTPSVPFIVPLSVIICPDRVGVFLDYEACTVSFFNITNHGFLIYKFSHCSFSQPVFPYLNPRKCGVPMTLCSPSS [human TRIM5α, 330-340 = GAPGTLYTFPTFV]”: 0.43 ± 0.027; for “MASGILVNVKEEVTCPICLELLTQPLSLDCGHSFCQACLTANHKKSMLDKGESSCPVCRISYQPENIRPNRHVANIVEKLREVKLSPEGQKVDHCARHGEKLLLFCQEDGKVICWLCERSQEHRGHHTFLTEEVAREYQVKLQAALEMLRQKQQEAEELEADIREEKASWKTQIQYDKTNVLADFEQLRDILDWEESNELQNLEKEEEDILKSLTNSETEMVQQTQSLRELISDLEHRLQGSVMELLQGVDGVIKRTENVTLKKPETFPKNQRRVFRAPDLKGMLEVFRELTDVRRYWVDVTVAPNNISCAVISEDKRQVSSPKPQIIYGAPGTLYTFPTLTNFNYCTGILGSQSITSGKHYWEVDVSKKTAWILGVCAGFQPDAMCNIEKNENYQPKYGYWVIGLEEGVKCSAFQDSSFHTPSVPFIVPLSVIICPDRVGVFLDYEACTVSFFNITNHGFLIYKFSHCSFSQPVFPYLNPRKCGVPMTLCSPSS [human TRIM5α, 330-340 = GAPGTLYTFPTLT]”: 0.128 ± 0.019.
The same measure for “MASGILVNVKEEVTCPICLELLTQPLSLDCGHSFCQACLTANHKKSMLDKGESSCPVCRISYQPENIRPNRHVANIVEKLREVKLSPEGQKVDHCARHGEKLLLFCQEDGKVICWLCERSQEHRGHHTFLTEEVAREYQVKLQAALEMLRQKQQEAEELEADIREEKASWKTQIQYDKTNVLADFEQLRDILDWEESNELQNLEKEEEDILKSLTNSETEMVQQTQSLRELISDLEHRLQGSVMELLQGVDGVIKRTENVTLKKPETFPKNQRRVFRAPDLKGMLEVFRELTDVRRYWVDVTVAPNNISCAVISEDKRQVSSPKPQIIYGAPGTLYTFPTLVNFNYCTGILGSQSITSGKHYWEVDVSKKTAWILGVCAGFQPDAMCNIEKNENYQPKYGYWVIGLEEGVKCSAFQDSSFHTPSVPFIVPLSVIICPDRVGVFLDYEACTVSFFNITNHGFLIYKFSHCSFSQPVFPYLNPRKCGVPMTLCSPSS [human TRIM5α, 330-340 = GAPGTLYTFPTLV]”: 0.0435 ± 0.061.
For the sequence “MASGILVNVKEEVTCPICLELLTQPLSLDCGHSFCQACLTANHKKSMLDKGESSCPVCRISYQPENIRPNRHVANIVEKLREVKLSPEGQKVDHCARHGEKLLLFCQEDGKVICWLCERSQEHRGHHTFLTEEVAREYQVKLQAALEMLRQKQQEAEELEADIREEKASWKTQIQYDKTNVLADFEQLRDILDWEESNELQNLEKEEEDILKSLTNSETEMVQQTQSLRELISDLEHRLQGSVMELLQGVDGVIKRTENVTLKKPETFPKNQRRVFRAPDLKGMLEVFRELTDVRRYWVDVTVAPNNISCAVISEDKRQVSSPKPQIIYGAPGTLYTFQSFTNFNYCTGILGSQSITSGKHYWEVDVSKKTAWILGVCAGFQPDAMCNIEKNENYQPKYGYWVIGLEEGVKCSAFQDSSFHTPSVPFIVPLSVIICPDRVGVFLDYEACTVSFFNITNHGFLIYKFSHCSFSQPVFPYLNPRKCGVPMTLCSPSS [human TRIM5α, 330-340 = GAPGTLYTFQSFT]”, the enrichment stood at 0.125 ± 0.021.
The value for “MASGILVNVKEEVTCPICLELLTQPLSLDCGHSFCQACLTANHKKSMLDKGESSCPVCRISYQPENIRPNRHVANIVEKLREVKLSPEGQKVDHCARHGEKLLLFCQEDGKVICWLCERSQEHRGHHTFLTEEVAREYQVKLQAALEMLRQKQQEAEELEADIREEKASWKTQIQYDKTNVLADFEQLRDILDWEESNELQNLEKEEEDILKSLTNSETEMVQQTQSLRELISDLEHRLQGSVMELLQGVDGVIKRTENVTLKKPETFPKNQRRVFRAPDLKGMLEVFRELTDVRRYWVDVTVAPNNISCAVISEDKRQVSSPKPQIIYGAPGTLYTFQSFVNFNYCTGILGSQSITSGKHYWEVDVSKKTAWILGVCAGFQPDAMCNIEKNENYQPKYGYWVIGLEEGVKCSAFQDSSFHTPSVPFIVPLSVIICPDRVGVFLDYEACTVSFFNITNHGFLIYKFSHCSFSQPVFPYLNPRKCGVPMTLCSPSS [human TRIM5α, 330-340 = GAPGTLYTFQSFV]” was 0.0585 ± 0.081.
